# Structures can show the parent of a compound that is named as a salt. Out of some 1,800 compounds screened, about 50 (3%) showed activity. The list shows a part of the results.
# Tested on: mouse p16Ink4a+/- lung fibroblasts (INKBRITE, bleomycin-injured)
# Experiment: percentage of GFP+ (p16Ink4a+) fibroblasts among all cells in well; higher = less depletion of p16Ink4a+ cells, active = 20 or less
# Settings: 1 µM; 3 days
# 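Also: fibroblasts sorted 14 days after bleomycin, GFP+ and GFP− mixed 1:1 in 384-well plates (GFP− as in-well control), imaged after Hoechst and NucView530 staining, reference wells lacked compound.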
row,Compound,percentage of GFP+
1,Cc1ccccc1C(=O)Nc1ccc(C(=O)N2CCCC(O)c3cc(Cl)ccc32)c(C)c1 (stereo not given) [Tolvaptan],inactive: 49.5%
2,NCCc1ccc(O)c(O)c1 [Dopamine],inactive: 39.9%
3,C[C@H](CS)C(=O)N1CCC[C@H]1C(=O)O [Captopril],inactive: 24.8%
4,CC1(COc2ccc3c(c2)ncn3-c2ccc3cccc(N4CCC(N)CC4)c3n2)COC1 [Crenolanib],inactive: 38.5%
5,Cc1cc(Nc2ncnc3ccc(-c4ccc(CNCCS(C)(=O)=O)o4)cc23)ccc1Oc1ccn2ncnc2c1 [HER2-Inhibitor-1],inactive: 47.4%
6,O=c1cc(N2CCOCC2)oc2c(-c3ccccc3)cccc12,inactive: 47.1%
7,Nc1c(CC(=O)O)cccc1C(=O)c1ccccc1 [Amfenac Sodium Monohydrate],inactive: 59.6%
8,CC(=O)OCC(=O)[C@@]1(O)CC[C@H]2[C@@H]3CCC4=CC(=O)CC[C@]4(C)[C@H]3C(=O)C[C@@]21C [Cortisone acetate],inactive: 47.3%
9,CCCCC1C(=O)N(c2ccccc2)N(c2ccccc2)C1=O [Phenylbutazone],inactive: 35.5%
10,Cc1cc2c(cc1CC(=O)c1sccc1S(=O)(=O)Nc1onc(C)c1Cl)OCO2 [Sitaxentan],inactive: 32.9%
11,Cc1ccc(C(=O)Cn2c3c(sc2=N)CCCC3)cc1 [Pifithrin],inactive: 46.5%
12,Cc1c(Nc2ncccc2C(=O)O)cccc1C(F)(F)F [Flunixin Meglumine],inactive: 46.2%
13,CCN1CCN(c2cc3c(cc2F)c(=O)c(C(=O)O)cn3C2CC2)CC1 [Enrofloxacin],inactive: 42.9%
14,N=C(N)Nc1nc(CSCCC(=N)NS(N)(=O)=O)cs1 [Famotidine],inactive: 37.9%
15,CCc1cc(Nc2nccc(-c3c(-c4ccc(OC)c(C(=O)Nc5c(F)cccc5F)c4)nc4ccccn34)n2)c(OC)cc1N1CCC(N2CCN(S(C)(=O)=O)CC2)CC1,inactive: 46.3%
16,"CN(CCOc1ccc(CC2SC(=O)NC2=O)cc1)c1ccccn1 (stereo not given) [Rosiglitazone, Rosiglitazone Maleate]",inactive: 38.5%
17,CC(C)(C)NC(=O)[C@H]1CC[C@H]2[C@@H]3CC[C@H]4NC(=O)C=C[C@]4(C)[C@H]3CC[C@]12C [Finasteride],inactive: 43.5%
18,CC(C)[C@H](O)C(=O)N[C@@H](C)C(=O)N[C@@H]1C(=O)N(C)CCc2ccccc21 [Semagacestat],inactive: 47.3%
19,CC(C)(C)CC(C)(C)c1ccc(OCCOCC[N+](C)(C)Cc2ccccc2)cc1 [Benzethonium Chloride],inactive: 46.8%
20,COc1ccc(CCC(=O)Nc2nc3ccc(Cl)cc3s2)cc1OC,inactive: 53.7%
21,COc1c(C)cnc(Cn2cnc3c(Cl)nc(N)nc32)c1C,active: 7.81%
22,CC(C)OC(=O)OCOP(=O)(CO[C@H](C)Cn1cnc2c(N)ncnc21)OCOC(=O)OC(C)C [Tenofovir Disoproxil],inactive: 37.9%
23,Cc1cc(-c2ccc(CC(=O)Nc3ccc(-c4cccnc4)cc3)cc2)ccn1,inactive: 43.3%
24,"O=c1oc2cc(O)ccc2s1 [Thioxolone, Tioxolone]",inactive: 41.9%

row,Compound,percentage of GFP+
1,CC(=O)N1CCN(c2ccc(OC[C@H]3CO[C@](Cn4ccnc4)(c4ccc(Cl)cc4Cl)O3)cc2)CC1 [Ketoconazole],inactive: 38.2%
2,Cc1ccc2c(=O)c3cccc(CC(=O)O)c3oc2c1C [Vadimezan],inactive: 40.3%
3,CC(C)C[C@H](NC(=O)[C@H](Cc1ccccc1)NC(=O)c1cnccn1)B(O)O [Bortezomib],active: 5.29%
4,N#CCNC(=O)c1ccc(-c2ccnc(Nc3ccc(N4CCOCC4)cc3)n2)cc1,inactive: 44.8%
5,CC12CC3CC(C)(C1)CC(N)(C3)C2 [Memantine],inactive: 41.2%
6,Cc1cc(C)nc(NS(=O)(=O)c2ccc(NC(=S)NC(=O)COc3ccc(Br)cc3Cl)cc2)n1,inactive: 44.9%
7,CN(C)C1CCN(C(=O)c2ccc(NC(=O)Nc3ccc(-c4nc(N5CCOCC5)nc(N5CCOCC5)n4)cc3)cc2)CC1,inactive: 33%
8,CC(C)/N=c1\cc2n(-c3ccc(Cl)cc3)c3ccccc3[nH]c-2c\c1=N/c1ccc(Cl)cc1 [Clofazimine],inactive: 40.5%
9,CCN(C(=O)c1c(O)c2c(Cl)cccc2n(C)c1=O)c1ccccc1 [Laquinimod],inactive: 47.7%
10,Clc1ccc(C(Cn2ccnc2)OCc2csc3c(Cl)cccc23)c(Cl)c1 (stereo not given) [Sertaconazole],inactive: 48.2%
11,NC1(Cc2ccc(Cl)cc2)CCN(c2ncnc3[nH]ccc23)CC1,inactive: 51.9%
12,CCNC(=O)c1[nH]nc(-c2cc(Cl)c(O)cc2O)c1-c1ccc(OC)cc1,inactive: 36.1%
13,CCOC(=O)O[C@]1(C(=O)OCCl)CC[C@H]2[C@@H]3CCC4=CC(=O)C=C[C@]4(C)[C@H]3[C@@H](O)C[C@@]21C [Loteprednol etabonate],inactive: 32.2%
14,c1ccc2[nH]c(-c3cscn3)nc2c1 [Thiabendazole],inactive: 45.3%
15,O=C1[O][Pt]2(<-[NH2][C@@H]3CCCC[C@H]3[NH2]->2)[O]C1=O [Oxaliplatin],inactive: 30.7%
16,Cn1c(=O)c2c(ncn2CC2OCCO2)n(C)c1=O [Doxofylline],inactive: 41%
17,O=C(N[C@H](CO)[C@H](O)c1ccc([N+](=O)[O-])cc1)C(Cl)Cl [Chloramphenicol],inactive: 47.6%
18,Nc1nc(NCCNc2ncc(-n3ccnc3)c(-c3ccc(Cl)cc3Cl)n2)ccc1[N+](=O)[O-],inactive: 50.9%
19,NNC(=O)c1ccncc1 [Isoniazid],inactive: 42.3%
20,COc1ccc(-c2ccc3ncc4c(c3c2)n(-c2ccc(N3CCNCC3)c(C(F)(F)F)c2)c(=O)n4C)cn1,active: 10.6%
21,Nc1cccc2c1C(=O)N(C1CCC(=O)NC1=O)C2=O (stereo not given) [Pomalidomide],inactive: 46.7%
22,C[C@H](NC(=O)Cc1cc(F)cc(F)c1)C(=O)N[C@H](C(=O)OC(C)(C)C)c1ccccc1,inactive: 50.7%
23,C=CC(=O)Nc1ccc2ncnc(Nc3ccc(OCc4cccc(F)c4)c(Cl)c3)c2c1,inactive: 45.4%
24,C[C@H]1C[C@H]2[C@@H]3CCC4=CC(=O)C=C[C@]4(C)[C@H]3C(=O)C[C@]2(C)[C@@]1(O)C(=O)CO [Meprednisone],inactive: 40.4%

row,Compound,percentage of GFP+
1,CN(C)c1nc(N(C)C)nc(N(C)C)n1 [Altretamine],inactive: 41.3%
2,Cc1cnc(Nc2ccc(N3CCN(C)CC3)cc2)nc1Nc1cccc(S(=O)(=O)NC(C)(C)C)c1,inactive: 39.4%
3,Cc1c(C(=O)Nc2ccc(N3C[C@@H](C)O[C@@H](C)C3)nc2)cccc1-c1ccc(OC(F)(F)F)cc1 [Sonidegib],inactive: 42.4%
4,C[C@H](NC(=O)Cc1cc(F)cc(F)c1)C(=O)N[C@@H]1C(=O)N(C)c2ccccc2-c2ccccc21,inactive: 57.6%
5,Nc1cc(C(Cl)=C(Cl)Cl)c(S(N)(=O)=O)cc1S(N)(=O)=O [Clorsulon],inactive: 40.5%
6,CC(C)(C)NS(=O)(=O)c1cncc(-c2cc(F)c3nc(N)nn3c2)c1,inactive: 49.8%
7,O=C(O)[C@H]1O[C@H](Oc2cc3oc(-c4ccccc4)cc(=O)c3c(O)c2O)[C@H](O)[C@@H](O)[C@@H]1O [Baicalin],inactive: 36.7%
8,O=C1C(c2c(O)[nH]c3ccccc23)=Nc2ccccc21 [Indirubin],inactive: 31.1%
9,COc1cc(O)c2c(c1)C(=O)c1cc(C)cc(O)c1C2=O [Physcion],inactive: 41.3%
10,CCCCCCOC(=O)/N=C(\N)c1ccc(NCc2nc3cc(C(=O)N(CCC(=O)OCC)c4ccccn4)ccc3n2C)cc1 [Dabigatran etexilate],inactive: 37.3%
11,CN1CCC(CNc2ccc3ncc(-c4cccc(OC(F)(F)F)c4)n3n2)CC1,inactive: 41.5%
12,C[C@H](C(=O)O)c1ccc(-c2ccccc2)c(F)c1 [Flurbiprofen],inactive: 44.9%
13,CC#C[C@]1(O)CC[C@H]2[C@@H]3CCC4=CC(=O)CCC4=C3[C@@H](c3ccc(N(C)C)cc3)C[C@@]21C [Mifepristone],inactive: 46.9%
14,N#CSc1cc(SC#N)c(N)nc1N,inactive: 38.2%
15,COC(=O)C1=C(C#N)N=C(C)/C(=C(\O)OC(C)C)C1c1cccc([N+](=O)[O-])c1 (stereo not given) [Nilvadipine],inactive: 51.6%
16,CN(C)CCc1c[nH]c2ccc(CS(=O)(=O)N3CCCC3)cc12 [Almotriptan],inactive: 36.7%
17,Oc1ccnc(O)n1 [Uracil],inactive: 46.8%
18,C/C1=C2/N[C@H]([C@H](CC(N)=O)[C@@]2(C)CCC(=O)NC[C@@H](C)OP(=O)(O)O[C@H]2[C@@H](O)[C@@H](n3cnc4cc(C)c(C)cc43)O[C@@H]2CO)[C@]2(C)N=C(/C(C)=C3N=C(/C=C4N=C1[C@@H](CCC(N)=O)C\4(C)C)[C@@H](CCC(N)=O)[C@]\3(C)CC(N)=O)[C@@H](CCC(N)=O)[C@]2(C)CC(N)=O [Vitamin B12],inactive: 52.5%
19,CC(=O)Oc1cc(C(F)(F)F)ccc1C(=O)O [Triflusal],inactive: 44.5%
20,Cc1ccc(C(=O)c2cc(O)c(O)c([N+](=O)[O-])c2)cc1 [Tolcapone],inactive: 47.5%
21,C[C@H](Cc1cc2c(c(C(N)=O)c1)N(CCCO)CC2)NCCOc1ccccc1OCC(F)(F)F [Silodosin],inactive: 34.1%
22,CCOC(=O)c1ccc(NC2CCCCC2)c(N)c1 [Ferrostatin-1 (Fer-1)],inactive: 54%
